Test results published in the antibiotic and cytotoxicity screens of Wong et al. (2023).
Some of the results follow.

How the values were obtained:
HSkMC = human skeletal muscle cells; experiment: cytotoxicity call (relative viability < 0.9); conditions: 10 µM
HepG2 = experiment: cytotoxicity call (relative viability < 0.9); conditions: 10 µM
S. aureus RN4220 = experiment: growth inhibition call (relative growth <= 0.2); conditions: 50 µM

Compound | cytotoxicity call (HSkMC) | cytotoxicity call (HepG2) | growth inhibition call (S. aureus RN4220)
C[C@H](CO)N1C[C@H](C)[C@H](CN(C)S(C)(=O)=O)Oc2ccc(NC(=O)Nc3ccccc3)cc2CC1=O | active | inactive | inactive
O=C(C[C@H]1CC[C@H]2[C@@H](COC[C@H](O)CN2C(=O)c2ccc3c(c2)OCO3)O1)NCCN1CCCC1 | inactive | inactive | inactive
CC(=O)n1cc([C@H]2C=C(C(=O)N3CCOCC3)O[C@@H](OCCCCOC(=O)NCCCCCC(=O)NO)C2)c2ccccc21 | inactive | inactive | inactive
O=C(O)c1ccc(O)cc1O | inactive | inactive | inactive
Clc1ccc(CCC(Cn2ccnc2)Sc2c(Cl)cccc2Cl)cc1 (stereo unspecified) | inactive | inactive | inactive
C[C@H]1CN([C@@H](C)CO)C(=O)Cc2cc(NC(=O)Nc3cccc4ccccc34)ccc2O[C@@H]1CN(C)S(=O)(=O)c1ccc(F)cc1 | inactive | inactive | inactive
C[C@@H]1CN([C@@H](C)CO)C(=O)c2cc(NC(=O)Cc3cn(C)c4ccccc34)ccc2O[C@@H]1CN(C)S(C)(=O)=O | inactive | inactive | inactive
COc1cccc(CN2C[C@@H](C)[C@H](OC)CN(C)C(=O)c3ccc(NS(=O)(=O)c4cn(C)cn4)cc3OC[C@H]2C)c1 | inactive | inactive | inactive
CCCCC(=O)c1ccc(O)cc1 | inactive | inactive | inactive
O=C1C(=Cc2cccs2)CCCC1=Cc1cccs1 | inactive | inactive | inactive
Cc1noc(C)c1NC(=O)Nc1ccc2c(c1)C(=O)N([C@H](C)CO)C[C@@H](C)[C@H](CN(C)C(=O)c1ccccc1)OCCCC[C@H](C)O2 | inactive | inactive | inactive
COc1ccc(S(=O)(=O)N(C)C[C@@H]2Oc3ccc(NS(C)(=O)=O)cc3CC(=O)N([C@H](C)CO)C[C@@H]2C)cc1 | inactive | inactive | inactive
C[C@@H]1CN([C@H](C)CO)C(=O)c2cc(N(C)C)ccc2O[C@@H](C)CCCCO[C@@H]1CN(C)C(=O)Nc1cccc2ccccc12 | inactive | inactive | inactive
C[C@@H]1CN([C@H](C)CO)C(=O)c2cc(NC(=O)Nc3ccc(C(F)(F)F)cc3)ccc2O[C@@H]1CN(C)C(=O)NC1CCCCC1 | active | active | inactive
COc1ccc(CN(C)C[C@H]2OCCCC[C@@H](C)Oc3ccc(NC(=O)Nc4ccc5c(c4)OCO5)cc3C(=O)N([C@@H](C)CO)C[C@H]2C)cc1 | inactive | inactive | inactive
O=C1CNCCN1C1CCCC1 | inactive | inactive | inactive
COCC#Cc1ccc2c(c1)O[C@H](CN(C)C(=O)CN(C)C)[C@H](C)CN([C@@H](C)CO)S2(=O)=O | inactive | inactive | inactive
O=C(C[C@H]1CC=CCC[C@H](Cc2ccc(F)cc2)C(=O)OC[C@H](Cc2ccccc2)NC1=O)NCCO | inactive | inactive | inactive
COc1ccc(CN(C)C[C@H]2OCCCC[C@@H](C)Oc3ccc(NS(=O)(=O)c4ccc(C)cc4)cc3C(=O)N([C@@H](C)CO)C[C@H]2C)cc1 | inactive | inactive | inactive
CN1C(=O)c2cc(NS(=O)(=O)c3cccc(F)c3)ccc2OC[C@H]2O[C@H](CC(=O)NCCN3CCCCC3)CC[C@@H]21 | inactive | inactive | inactive
CC(=O)NCCCCCC(=O)O | inactive | inactive | inactive
COc1ccc(N2C(=O)C[C@@H](N3CCCN([C@H]4CC(=O)N(c5ccc(OC)cc5)C4=O)CC3)C2=O)cc1 | inactive | inactive | inactive
COc1ccc(CCNC(=O)[C@@]2(Cc3ccccc3I)c3ccccc3C(=O)N(Cc3ccccc3OC)[C@H]2c2ccc(CO)cc2)cc1 | inactive | inactive | inactive
C[C@@H]1CCCCO[C@@H](CN(C)C(=O)Nc2ccccc2)[C@H](C)CN([C@@H](C)CO)C(=O)c2cc(NS(=O)(=O)c3ccc(F)cc3)ccc2O1 | inactive | inactive | inactive
O=C([O-])C(O)C(O)C(O)C(O)CO.[Na+] (stereo unspecified) | inactive | inactive | inactive
COc1ccc(NC(=O)Nc2ccc3c(c2)C(=O)N([C@H](C)CO)C[C@H](C)[C@@H](CN(C)S(=O)(=O)c2ccc(F)cc2)OCCCC[C@H](C)O3)cc1 | inactive | inactive | inactive
Cc1noc(C)c1NC(=O)N(C)C[C@H]1OCCCC[C@@H](C)Oc2ccc(NC(=O)c3ccccc3)cc2C(=O)N([C@@H](C)CO)C[C@H]1C | inactive | inactive | inactive
